The source gives no read counts; variants with many changes may rest on few reads.

The chains are these.
B1: LINE1-mini (parent)
chain: GGCAGAGCUCAACACAGCGUGGCAAAGUGGCUGUGGCUAGACUGCC

This data set covers variants of B1. Description: self-cleavage, relative activity (ratio to wild type); higher = more cleavage; in vitro, sequencing; the parent is a self-cleaving ribozyme.
On to GGCAGCGCUCACCACAGCGUGGCAGAGUGGCAGUAGCCAGACUGCC, for which the self-cleavage is 0.01. GGCAGCGCUCUACACAACGUGGCAAAGUGGCUGUGGUUAUACUGCC: the self-cleavage was determined as 0.05.

For the variant GGCAGCGCUCAUCACAGUGUGGUAAAGUGGCUGUGGCUAGAUUGCC, the self-cleavage was found to be 0.09. Regarding GGCAUAGCUCAACACAGCGUGGCAAAGCGGUUGUGGCUAGACAACC, the self-cleavage was 0.03.

Turning to GGCAUAGCUCAACACAGCGUGGCAAAGUGGCAGUGUGUAGACUGCC, the self-cleavage is 0.03. With GGCAGCGCUCAACACUGAGUGCCAAAGUUGCUGAGGCUAGACUGCC, the self-cleavage was 0.02.

Take GGCAUAGCUCAACACAGCGUGGCAAAGUGGCCGUGGCUAGACGGCC: the self-cleavage came to 0.04. Next, GGCAGCGCUCGACACAGCGUGGCAAAGUGGCUGUGGCUAGAAUGCC: 0.01; GGCAGCGCUCAACACAGCGUGGCAAGGUGGCUGUAGCUAGACUGCC: 0.11; GGCAGCGCUCAACACAGCGUGGCGAAGUGGCUGUGGCUAGACUGCA: 0.1. Next, GGCAUAGCUCAACACAGCGGGACAAAGUGGCUGUGGCUAGACUGCU: 0.09; GGCAUAGCUCAACACAGCGUGGCAAAGUGGCUGUGGCACGACUGCC: 0.07. In the case of GGCAUAGCUCAACACAGCGUGGCAAAGCGGCUGUGGAUAGACUGCC, the self-cleavage was determined as 0.07. Next, GGCAGCGCUCAGCACAGAGAAGCACAGUGGCUGUGGCUAGACUGCC: 0.07; GGCAGCGCUCAACCCAGCGUGGCAAAGUGGCUGUGGGUAGACUUCC: 0.16.

For the variant GGCAGCGCUCCACACAGCGUGGCAAAGUGGCUGUGGCUAUACUGCC, the self-cleavage came to 0.04.

With GGCAUAGCUCAACACAGCGUGGCAAAGAGGCUGUGGCUAGACUACC, the self-cleavage amounted to 0.03. Turning to GGCAUAGCUCAACACAGCGUGGCAAAGGGGCUUUGUCUAGACGGCC, the self-cleavage worked out at 0. Next, GGCAGCGCUCUAAACAGAGUGGCAAAGUAGCUGUGGCUAGACUGCC: 0.02. Next, GGCAGCGCUCAACACAGCGUGGCACAGUGGCUGUGGUUAGACUGCC: 0.02. Next, GGCAGCGCUCAACGCAUCUUGGCAAAGUGGCAGUGGCUAGACUGCC: 0.02.

Regarding GGCAUAGCUCAACACAGCGUGGCAAAGUGGCUGCGGCUACACUGCC, the self-cleavage was 0.04. Next, GGCAGCGCUCAACACAGCGUGGCAAAGUGGCUGUGGCUUGACUGCG: 0.39; GGCAGCGCUCAACGCAGCGUGGCAAAGUCGCUGUGGCUAGACUGCC: 0.11; GGCAGCGCUCAACACCGCGCGGUAAAGUGGCUGUGGUUAGACUGAC: 0.05.

For GGCAUAGCUCAACACAGCGGGGCAAAGUAGAUGUGGCUAGACUGCC, the self-cleavage was determined as 0.03. On to GGCAGCGCUCAACACUGCGUGGCAAAGUAGCUGUGACUAGACUGCC, for which the self-cleavage was 0.25. Take GGCAGCGCUCUAAACAGCGUGGCAAAGUGGCUGUGGCUAGACUGCC: the self-cleavage was found to be 0.03. Next, GGCAGCGCUCAACACAGCGUGGCAUAGUGGCUGUGGCUAGACUGCU: 0.9. On to GGCAGCGCUCGAGACAGCAUGGCAAAGUGGCUGUGGAAAAACUUCC, for which the self-cleavage came to 0.04.

Turning to GGCAUAGCUCAACACAGCGCGGCAAAGUGGCUGUGGCUAGACGUCC, the self-cleavage stood at 0.13. Next, GGCAGCGAUCAACGCAGCGUGGCAAAGUGGCUGUGGCUAGGAUGCC: 0.02.

Regarding GGCAGCGCUCAACACAGCGUGGCUCAGUGGCUGUGGCUAGACUGCC, the self-cleavage turned out to be 0.23. Next, GGCAGCGCUCAACACAGCGUGGCAUCGUGGCUGUGGUUAGACUGCC: 0.07.

Take GGCAUAGCUCAACACAGCGUGGCAAAGUGGCUGUGGCGAGACUGCA: the self-cleavage stood at 0.04. Next, GGCAUAGCUCAACACAGCGGGGCAAAUCGGCUGUGGCUAGACUGCC: 0.12. Next, GGCAUAGCUCAACACAGCGUGGCAAAGUGGCGGUGGCUAUACUACC: 0.09; GGCAGCGCUCUACACAGCGUGGCAAAGUCGCUGUGGCCAGACUGCC: 0.04. As to GGCAUAGCUCAACACAGCGUGGCAAAGUGGCCGUGGCUAUACUGCC, the self-cleavage amounted to 0.06.

For the variant GGCAGCGCUCAACACUGCGUGGCAAAGUGGCUGUGGCUAAACUGCG, the self-cleavage is 0.02. Next, GGCAGCGCUCAACACCGCGUGGCAAGGUGGCUGUGGCUAGACUACC: 0.03; GGCAGCGCUCAACCCAACGUGGCAAAGUGGCUGUGGCUAGGCUGCC: 0.04. Next, GGCAGCGCUCAACACAGCGUGGCAAUGUGACUGUGGCUAGACUGCC: 0.17; GGCAGCGCUCAACUCAGCGUGGCAAAGUGGCCGUGGCUAGACUGCC: 0.07. Next, GGCAUAGCUCAACACAGCGUGGCAAAGAGGCUGUGGAUAGACUGCC: 0.04; GGCAGCGCUCAACACGGCGUCGCAAAGUGGUUGUGGAUAGACUGCC: 0.02; GGCAGCGCUCAGCACAGCCUGGCAAAGUGGCUGUGGCUAGACUGCC: 0.07. For GGCAGCGCUCAACCCAGCGUGGCAAGGUGGCUGUGGCUAGAUUGCC, the self-cleavage came out at 0.02. Next, GGCAGCGCUCACCACAGGGUGGCAAAGUGGCUCUAGCUAGACUGCC: 0; GGCAUAGCUCAACACAGCGUGGCAAAGGGGCUGUGGCAACACUGCC: 0.01. Regarding GGCAGCGCUCACCACAGCGUGGCAAACGGGCUGCGGCUUGACUGCC, the self-cleavage is 0.02. Next, GGCAGCGCUCUACACAGCGUGGCAAAGUGGGUGUGGCUAGACUGCC: 0.02. GGCAGCGCUCUAGACAGCGUCGCAAAGUGGCUGUGGAUAGACUGCC: the self-cleavage was 0.02. Next, GGCAGCGCUCAACACAGCGUGGCCAAGUGGCUGUGGCUAGACUGUC: 0.08.

On to GGCAUAGCUCAACACAGCGUGGCAAAGUGGCGGUGGCUAGACAGCC, for which the self-cleavage was 0.03. On to GGCAGCGCUCCACGCAGCGUGGCAAAGUUGCUGUUGCUAGACUGCC, for which the self-cleavage came to 0.01. Next, GGCAGCGCUCAACCCAGCUUGGCAAAGUGGAUGUGGCUAGACUGCC: 0.02; GGCAUAGCUCAACACAGCGGGGCAAAGUGGCUGUUGCUAUACUGCC: 0.05. Next, GGCAGCGGUCUACACGACGCGGCAAAGUGGCUGUGGCUAGACUGCG: 0.02; GGCAGCGCUCAACACAGCGUGGCACAGUGGCAGUGGCUAGCCUGCC: 0.02; GGCAGCGCUCAACACAGCGUGGCUAAGUGGCUGUGGCUACACUACC: 0.

As to GGCAGCGAUCAACACAGCGUGGCAAUGUGGGUGUGGCUAGACUGCC, the self-cleavage was found to be 0.12. As to GGCAGCGCUCACCAUAGCGUGGCAAAGUGGCUGUGUCUAGAAUGCC, the self-cleavage was found to be 0.01.

As for GGCAGCGCUCAACACCUCGUGGCAAACUGGCUGUGGCUAGACUGCC, the self-cleavage stood at 0.04.

In the case of GGCAGCGCUCAACGCAGCGUGGCAAAGUGGCUGUGGCUAGACUUCC, the self-cleavage was 0.04. Next, GGCAGCGCUCAGCACAGCGGGGCAAAGUGGCUGUGGCUAGACUGCC: 0.02; GGCAGCGCUCGAAACCGCGUGGCAAAGUCGUUGUGGCUAGACUGCC: 0.03.

Consider GGCAGCGCUCAACCCAGCGUGGCCAAGUGGCUGUGGCUAGAGUGCC, for which the self-cleavage is 0.02. As for GGCAGCGCUCAACACAGCGUGGCACAGUGGCUGUGGCUAGACUGUG, the self-cleavage is 0.19.

GGCAGCGCUCAACACUGCGUGGGAAAGUGGCUGUGGCUAGACUGCC: the self-cleavage was found to be 0.11. With GGCAGCGCUCUACACCGCGUGGCAAAGUGGCUUUGGCUAGACUGCC, the self-cleavage turned out to be 0.01. Next, GGCAGCGCUCAACACAGCGUGGCUAAGUGGCUCAGACUAGACUGCG: 0.03; GGCAGCGCUCACCACAGCGUGGCAAAGUGGCUGUGUCUAGACUGCC: 0.07; GGCAUAGCUCAACACAGCGGGGCAAAGUGGCUGUGCGUAGACUACC: 0.02.

For the variant GGCAGCGCUCAGCACAGCGUGGCAUCCUGGCUGUGGCUAGACUGCC, the self-cleavage stood at 0.01. On to GGCAGCGCUCAACACAGCGUGGCAAGGGGGCUGUGGUUAGACUGCC, for which the self-cleavage was 0.02. For GGCAGCGCUCAGCACAGCGUGGCAAAGUGGCUGUAGCUAGACUGCC, the self-cleavage stood at 0.03. Next, GGCAGCGCUCAACACAGCGUGGCAAAGUGGCUGUGGCUAGCCUACC: 0.03. Next, GGCAUAGCUCAACACAGCGUGGCAAAGAAGCUGUGGCUAGACUGCC: 0.07; GGCAGCGCUCAACUCAGCGUGGCAAAGUGGCUGUGGCUAGACUGCU: 0.3. For GGCAGCGCUCAACACAGCGUGGCAAAGUGGCUGUGGCUGGACCGCC, the self-cleavage amounted to 0.02.

As to GGCAGCGCUCUACACAGCGUGGCAAAGUGGCUGUUGCUAGACUGCC, the self-cleavage turned out to be 0.06.

As for GGCAGCGGUCCACGCAGCGUGGCAAAGUUGCUGUGGCUAGACGGCC, the self-cleavage was 0. Next, GGCAUAGCUCAACACAGCGUGGCAAAGUGGCUGGGGCUAGACUUCC: 0.01; GGCAGCGAUCAACACAGCGUGGCAAAGUGGGUGUGGCUAGCCUGCC: 0.13.

With GGCAUAGCUCAACACAGCGUGGCAAAGAGGCCGUGGCUAGACUGCC, the self-cleavage stood at 0.04. Next, GGCAGCGCUCUCCACAGCGUGGCAAAGUGGCUGUGGCUAGACUGCC: 0.04.

GGCAGCGCUCAUCACAGCUUGGCAUAGUAUCUGUGCCUAGAAUGCC: the self-cleavage worked out at 0.05.

In the case of GGCAGCGCUCAACACUGCGUGGCAAAGUGGCUGUGGCUAGACUGCA, the self-cleavage was 0.01. Next, GGCAGCGCUCAACCCAGCGUGGCAAAGUGGCUGCGGCUAAACUGCC: 0.06; GGCAGCGCUCAACACAGCGUGGCAAGGGGGCUGUGGCUAGACUGCC: 0.08; GGCAGCGCUCAACGCAGCGUGGCAAAGAGGCGGUGGCUAGACUGCC: 0.22. Turning to GGCAGCGCUCAACACAGCGUGGCGAAGUGUCUGUGGCUAGACUGCC, the self-cleavage was 0.65.

GGCAGCGAUCAACAAAGCGUGGCAAAGUGGCUGUGGCUAGGCUGCC: the self-cleavage came out at 0.17. As to GGCAGCGCUCCAUACAGCGUGGCAAAGUGGCUGUGGCUAGACUGCC, the self-cleavage worked out at 0.05.

On to GGCAGCGCUCAUCACAGCGUGGCAAAGUCGCUGUGCCUAGAGUGCC, for which the self-cleavage turned out to be 0. Next, GGCAGCGCUCAACACUGCGUGGCAAACUGGCUGUGGCUAGACUGCC: 0.21. Next, GGCAGCGCUCUAAACAGAGAGGCAAAGUGGCUGUGGCUAGGCUGCC: 0.02; GGCAGCGCUCCACACAGCGUGGCAAAGUGGCUGUGGGUAGACUGCC: 0.01. Consider GGCAGCGCUCUACUCAGCGUGGCAAAGUGGCUGUGGCUCGACUGCC, for which the self-cleavage is 0.03. Next, GGCAGCGAUCACCACAGCGUGGCAAAGUGGCUGUGGCUAGGCUGUC: 0.06; GGCAGCGCUCAACUCAGCUUGGCGAAGUGGCUUUGCCUAGACUGCC: 0.02; GGCAGCGCUCAUCACAGCGUGUCAGACUGGCUGUGGCUAGCCUGCC: 0.01. Next, GGCAGCGCUCAACACAGCGUGGCUAACGGGCUGUGGCUAGACUGCC: 0.09. Next, GGCAGCGCUCAACACAGCGUGGCUAAGUGGCUGUGGAUAGACUGCC: 0.03. With GGCAGCGCUCAACCCAACGUGGCAAAGCGUCUGUGUCUAGACUGCC, the self-cleavage turned out to be 0.02. Next, GGCAUAGCUCAACACAGCGUGGCAAAGUGGCAGUGGCUGGACUGCC: 0.02. For the variant GGCAUAGCUCAACACAGCGUGGCAAAGUGGCCGUGGCUAGACUGCA, the self-cleavage was 0.05. Next, GGCAUAGCUCAACACAGCGUGGCAAAGUGGCAGUCGCUAGACUGCC: 0.06. GGCAGCGAUCAACACAGCGUGGCAAAGUAGCUGUGUCUAGACUGCC: the self-cleavage came out at 0.11.

In the case of GGCAGCGCUCUAGACAGCGAGGCAAAGUGGCUGUGGCUAGACUGCC, the self-cleavage was determined as 0.04. GGCAUAGCUCAACACAGCGUGGCAAAGUGGCGGUCGCUAGUCUGCC: the self-cleavage was determined as 0.05.
